Assay results taken from patent publication US20020147326A1 (GlaxoSmithKline, published 2002).

B1: CD86-Igαtp (Fc fusion)
chain (part 1 of 2): APLKIQAYFNETADLPCQFANSQNQSLSELVVFWQDQENLVLNEVYLGKEKFDSVHSKYMGRTSFDSDSWTLRLHNLQIKDKGLYQCIIHHKKPTGMIRIHQMNSELSVLANFSQPEIVPISNITENVYINLTCSSIHGYPEPKKMSVLLRTKNSTIEYDGIMQKSQDNVTELYDVSISLSVSFPDVTSNMTIFCILETDKTRLLSSPFSIELEDPQPPPDH[omitted - human IgG1 Fc with changes]PTHVNVSVVMAEVDGTCY
modifications: biotinylated in the ELISA formats
notes: also called B7.2-IgA; hexameric CD86; not shown: human IgG1 heavy chain Fc region (hinge, CH2, CH3), same as in CD80Fcαtplink
B2: CD80-Ig (Fc fusion)
chain: VIHVTKEVKEVATLSCGHNVSVEELAQTRIYWQKEKKMVLTMMSGDMNIWPEYKNRTIFDITNNLSIVILALRPSDEGTYECVVLKYEKDAFKREHLAEVTLSVKADFPTPSISDFEIPTSNIRRIICSTSGGFPEPHLSWLENGEELNAINTTVSQDPETELYAVSSKLDFNMTTNHSFMCLIKYGHLRVNQTFNWNTTKQEHFPDQ[omitted - human IgG1 Fc with C220A (EU numbers)]
modifications: biotinylated in the direct ELISA (FIGS. 10, 11); disulfide-linked Ig homodimer
notes: also called B7Ig; B7.1-Ig
B3: CD80-Igαtp (Fc fusion)
chain: VIHVTKEVKEVATLSCGHNVSVEELAQTRIYWQKEKKMVLTMMSGDMNIWPEYKNRTIFDITNNLSIVILALRPSDEGTYECVVLKYEKDAFKREHLAEVTLSVKADFPTPSISDFEIPTSNIRRIICSTSGGFPEPHLSWLENGEELNAINTTVSQDPETELYAVSSKLDFNMTTNHSFMCLIKYGHLRVNQTFNWNTTKQEHFPDQ[omitted - human IgG1 Fc with changes]PTHVNVSVVMAEVDGTCY
modifications: biotinylated in the ELISA formats (about 10 biotin per CD80-Ig monomer); unlabelled in BIAcore, flow cytometry and calorimetry
notes: Junction HFPDq/EPKSA (Gln for the native Asn); Cys to Ala in the upper hinge; also called B7-FcA; B7FcA

Key:
[1] = target: T1, CTLA4-Ig (human, UniProt P16410 36-161); assay: ELISA: immobilized CTLA4-Ig, biotinylated protein titrated, OD 405
T1 construct: also called CTLA4-Fc; not shown: human IgG1 heavy chain Fc region (hinge, CH2, CH3) of vector COSFcLink

[2] = target: T1, CTLA4-Ig; assay: isothermal titration calorimetry at 44° C., Kd corrected to 37° C. by the van't Hoff equation
[3] = target: T1, CTLA4-Ig; assay: isothermal titration calorimetry, in solution, 37° C.
[4] = target: T1, CTLA4-Ig; assay: isothermal titration calorimetry, in solution, 44° C.
[5] = target: T1, CTLA4-Ig; assay: isothermal titration calorimetry, Kd at 37° C., measured at 37° C.
[6] = target: T2, CD28-Ig (human, UniProt P10747 19-152); assay: SPR (BIAcore), about 4000 RU CD28-Ig amine coupled, analyte 20 ug/ml
T2 construct: extracellular domain; also called CD28-Fc; not shown: human IgG1 heavy chain Fc region (hinge, CH2, CH3) from cell line ARH-77, beginning at the start of the hinge (EPKSA...)

[7] = target: T2, CD28-Ig; assay: ELISA: CD28-Ig coated on wells (curve CD28-400), biotinylated CD80-Igαtp titrated, streptavidin-HRP, OD 405
[8] = target: T2, CD28-Ig; assay: ELISA: CD28-Ig coated on wells (curve CD28-200), biotinylated CD80-Igαtp titrated, streptavidin-HRP, OD 405

T1 sequence (P16410 other isoform, or with tags, fused parts or gaps): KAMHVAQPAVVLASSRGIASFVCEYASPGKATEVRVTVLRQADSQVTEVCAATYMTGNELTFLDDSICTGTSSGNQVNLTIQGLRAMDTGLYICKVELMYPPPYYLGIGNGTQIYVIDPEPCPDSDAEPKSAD

Binder | EC50 (read off the curve) [1] | Kd [2] | Kd [3] | Molar Ratio (CTLA4-Ig per construct) [3] | ΔH [3] | Kd [4] | Molar Ratio (CTLA4-Ig per construct) [4] | ΔH [4] | Kd [5] | rate of dissociation against CD80-Ig [6] | EC50 (read off the curve) [7] | EC50 (read off the curve) [8]
B1 | ~0.01 mg/L | 9 nM | 20 nM | 2.72 | -155 kJ/mol | 38 nM | 2.83 | -172 kJ/mol | 20 nM | – | – | –
B2 | ~0.02 mg/L | 2 nM | 5.4 nM | 0.72 | -134 kJ/mol | 4.9 nM | 0.6 | -151 kJ/mol | – | – | – | –
B3 | ~0.004 mg/L | 2 nM | 5.9 nM | 4.02 | -151 kJ/mol | 8.1 nM | 3.79 | -159 kJ/mol | 6 nM | ~1000 fold slower | ~0.03 mg/L | ~0.04 mg/L
